Results reported in the supplement of paper PMC7826260.
Some of the results follow. Cleavage of a single-stranded DNA pool by Rep nickase domains was read by sequencing (3 µM enzyme, 1 h, 37 °C); shown is the middle of each 90-letter strand. The score is log2 (uncut reads / reads without enzyme); more negative means more cut, near 0 not cut, and no call is made. Reads are scaled to the total; values above 0 arise when much of the pool is cut.

What follows are sequences tested on T1, Rep nickase domain of tomato golden mosaic virus (assay: uncleaved DNA left, log2 of reads against the no-enzyme library (log2 ratio); higher = less cleavage (more negative = more Rep cleavage of the k-mer); sequences stand for … in CTCGTCCG…ACCGGAGA).
T1 sequence (protein, residues 1-124, tag omitted): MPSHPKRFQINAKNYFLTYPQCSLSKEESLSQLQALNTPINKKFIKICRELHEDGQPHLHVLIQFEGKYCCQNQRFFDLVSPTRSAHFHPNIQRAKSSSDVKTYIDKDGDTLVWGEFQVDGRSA
Method: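 A pool of 90-nt single-stranded DNAs with seven random bases just before the constant AC of the nick site (name = the seven bases) was cut by 3 µM recombinant His6-SUMO-tagged Rep nickase domain (300 nM DNA, 50 mM HEPES pH 8.0, 50 mM NaCl, 1 mM MnCl2, 1 h, 37 °C, three replicates). Uncut DNA was amplified and sequenced.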
For TTTGCTT, the “uncleaved DNA left (log2)” value was -0.0696.
TCCCAGG was tested, and the “uncleaved DNA left (log2)” value was 0.122.
GAAATCT was tested, and the “uncleaved DNA left (log2)” value was -0.0333.
For AATCCTA, the “uncleaved DNA left (log2)” value was -0.0278.
GACAATC was tested, and the “uncleaved DNA left (log2)” value was -0.0159.
For GATTAAG, the “uncleaved DNA left (log2)” value was -0.0946.
CCAAAAA was tested, and the “uncleaved DNA left (log2)” value was 0.217.
CAATCAG was tested, and the “uncleaved DNA left (log2)” value was 0.0202.
For GCCGCTC, the “uncleaved DNA left (log2)” value was -0.0291.
With TATAATG the “uncleaved DNA left (log2)” value was -0.121.
TGTCCGG was tested, and the “uncleaved DNA left (log2)” value was 0.0536.
With CAGATAC the “uncleaved DNA left (log2)” value was 0.0495.
With TCCGAAA the “uncleaved DNA left (log2)” value was 0.0443.
For CCGCTCG, the “uncleaved DNA left (log2)” value was -0.144.
In the case of GGATAAG, the “uncleaved DNA left (log2)” value was 0.0525.
For GCGTTGA, the “uncleaved DNA left (log2)” value was -0.0809.
For CGACGCG, the “uncleaved DNA left (log2)” value was 0.0648.
With CTACTTC the “uncleaved DNA left (log2)” value was -0.0771.
In the case of CGCCCGG, the “uncleaved DNA left (log2)” value was -0.0879.
With ACCCACC the “uncleaved DNA left (log2)” value was 0.0528.
In the case of ACATGTC, the “uncleaved DNA left (log2)” value was -0.0333.
CCATAAC was tested, and the “uncleaved DNA left (log2)” value was -0.00631.
With ATCATAA the “uncleaved DNA left (log2)” value was 0.0914.
TTAACGG was tested, and the “uncleaved DNA left (log2)” value was 0.142.
CCGTAAA was tested, and the “uncleaved DNA left (log2)” value was -0.00464.
In the case of TCAAAGA, the “uncleaved DNA left (log2)” value was -0.0179.
With CAAATAA the “uncleaved DNA left (log2)” value was 0.105.
TACATAA was tested, and the “uncleaved DNA left (log2)” value was -0.0645.
ACCTATG was tested, and the “uncleaved DNA left (log2)” value was -0.00346.
For TTGGGCC, the “uncleaved DNA left (log2)” value was -0.0444.
In the case of TACTCTT, the “uncleaved DNA left (log2)” value was -1.21.
TATAATA was tested, and the “uncleaved DNA left (log2)” value was 0.106.
In the case of GCGCAGT, the “uncleaved DNA left (log2)” value was 0.00985.
For GCGTGGT, the “uncleaved DNA left (log2)” value was -0.0983.
TATGATT was tested, and the “uncleaved DNA left (log2)” value was -0.325.
For TTCCGGG, the “uncleaved DNA left (log2)” value was 0.0813.
In the case of GCTGGTT, the “uncleaved DNA left (log2)” value was 0.192.
With CGTAACC the “uncleaved DNA left (log2)” value was 0.0222.
With ACTCGTG the “uncleaved DNA left (log2)” value was 0.06.
In the case of GTTACAG, the “uncleaved DNA left (log2)” value was -0.0514.
